Assay results: PMC12136788
The other results are listed elsewhere or left out.

T1: UNK ZnF1-3 (human, UniProt Q9C0B0 31-174)
T1 sequence: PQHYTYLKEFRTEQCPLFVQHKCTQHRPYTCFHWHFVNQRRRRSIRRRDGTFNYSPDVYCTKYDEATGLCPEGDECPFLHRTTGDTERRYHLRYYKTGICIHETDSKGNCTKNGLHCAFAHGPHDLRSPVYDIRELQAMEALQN

B1: 109257482_109257602_1019_CDS_ENSMUSG00000020611_ENSMUST00000020930|mouse|control|control (ssRNA)
RNA: GGGAGUUCUACAGUCCGACGAUCAAAUUCUAGGAAAUAGUCUUUGAUGCUAACAACUUGCACUUUCUCCUCGAGCAAGUCUGUCUUGUUUAAGAAGAGGAUUAUGGAGACGUUGCUGAAAACCCGAUUGUUGACAAUUGUUUCCAACAGAGGAUUGAGCAUCA
B2: chr6:31368937:31368938:+_ENSMUSG00000025609_ENSMUST00000026699|mus_hu|motif|central (ssRNA)
RNA: GGGAGUUCUACAGUCCGACGAUCGGGAGGAUAGUUGCUCUCUGAAGACCAUCUUGAAGAUUGGUCAUUUGGUUUGUCCACGGAAAUGUUCUCGGGAAGGUAGGUGGAGGAAAAGGAGCUCCACUUGUGUAGCGCGUAGGGGAGCAACAGAGGAUUGAGCAUCA
B3: chr1:165697146:165697147:-_ENSG00000143183_ENST00000464650|hu_hu|motif|central (ssRNA)
RNA: GGGAGUUCUACAGUCCGACGAUCUUGCUGGCUGCCAUUUUCACUCUAAUCAUACCCAAAAGGCUUAGAAAUAAUUCAAAACGGGAAAGAGGCCCAAGUAGUAAGGCUACCUAUGGCUCUUGCUACAAAACAGUUGCCAGUCUGCAACAGAGGAUUGAGCAUCA
B4: chr13:113657673:113657674:+_ENSMUSG00000021759_ENSMUST00000016144|mus_mus|FALSE|FALSE (ssRNA)
RNA: GGGAGUUCUACAGUCCGACGAUCAUGGAGAGUCGUGUGUGGAUCCUCUUCCUUUCUCUCUUUGUAAGAAUGUGUGUCCUUGAAGAAAUCGGAUACAUACAAAGCAACCAGUAUAGCCAUAGCAGCUCCCUGAAUGAGUCCAACCAACAGAGGAUUGAGCAUCA
B5: 111629782_111630603_1761_CDS_ENSG00000108039_ENST00000369680|human|control|control (ssRNA)
RNA: GGGAGUUCUACAGUCCGACGAUCGGGCUCAUCAGUGACAAUCAUGCCUGCCUCCAAGGGCUCAUCAGAGAAUGUUUUGUAACUGAUGCCGCAAGGACCCUCAUGGACAUUCAAAAAAGACCCAACACCAUGUCCAGUCCCGUGCAACAGAGGAUUGAGCAUCA
B6: chr14:21833301:21833302:-_ENSG00000092201_ENST00000216297|hu_hu|FALSE|FALSE (ssRNA)
RNA: GGGAGUUCUACAGUCCGACGAUCAUUGAUGCUGAAAACCAUUCCUUUCUUCAGUUUGUAUUGAUUUUUGCUAUUGAUUACUAGGGAGCCUUCACGGAAUUCAAUUCCCAUCCCAAACCCUAGGUUUUUGGUAAUUUUGUUCAGCAACAGAGGAUUGAGCAUCA
B7: chr2:9572718:9572719:+_ENSG00000119203_ENST00000238112|hu_hu|FALSE|FALSE (ssRNA)
RNA: GGGAGUUCUACAGUCCGACGAUCGACGUGACCUGCAUGGUAACACCAAAACUUGAUUCCCGCAACUUCCUUAACUUCAUGAAAGUUGAUAGUUUCAAUUUUGUCCAUGCUUUCUUCCAAAUCUGUCUCGGUAUACAGCAUGUCCAACAGAGGAUUGAGCAUCA
B8: chr3:20008827:20008828:+_ENSMUSG00000002428_ENSMUST00000002502|mus_mus|FALSE|FALSE (ssRNA)
RNA: GGGAGUUCUACAGUCCGACGAUCUGAGGCUUUAAGAGGUGUUUCUAUUAAAGACAAGAAUGUGGUAAACUGAGAAACAACUAAACUUUUUAUGUUGGGGUCCUUUGUCCGUAAUUCAAUCAAAGCAUGCAUUAGAGCAUUAAUCAACAGAGGAUUGAGCAUCA
B9: 95327714_95327975_828_CDS_ENSMUSG00000034088_ENSMUST00000170883|mouse|control|control (ssRNA)
RNA: GGGAGUUCUACAGUCCGACGAUCCUCCACUUCUAGCCUCUCUACAGCACGCUUGUCCUGCUCAGCAGAGAUUAGGAGGACUUCAUGGCGAGCUUUCUCGAUGCCUUCUUUGGUGCCAGUGAUCUUGAUCUGAUUACUGGGGUCCAACAGAGGAUUGAGCAUCA
B10: chr1:169100865:169100866:+_ENSG00000143153_ENST00000367816|hu_hu|FALSE|FALSE (ssRNA)
RNA: GGGAGUUCUACAGUCCGACGAUCGUGUAAAGCAUAUAGAUUAAGUGUAGGUCCCAUACGUAUGACAGUUUGUUCAAGACUAGUAGGUUUUUGUUUUUGUAUCUUUUUUUAACUUAUUAAAUGGCUAGUGGGAAAGAUUUGUGCCAACAGAGGAUUGAGCAUCA
B11: chr4:17845017:17845018:+_ENSG00000109805_ENST00000514176|hu_mus|hu_hu_hu_mus_False|28_58 (ssRNA)
RNA: GGGAGUUCUACAGUCCGACGAUCGCUCUCUUAACUUGUAUCUUCAUUAAGGAACUCUGCAAGGUUAAGUUUACUUUUUCUAGUGCUAGCUGUUUUGGCUCGUCUGGUAGUCUCAUCCUUCAUUUCUGAUGGUGGUUCAUGAUCCAACAGAGGAUUGAGCAUCA
B12: chr2:179515052:179515053:+_ENSMUSG00000000305_ENSMUST00000000314|mus_hu|mus_mus_mus_hu_False|68_88 (ssRNA)
RNA: GGGAGUUCUACAGUCCGACGAUCGCUGUCCCAUGCAGUCACCGUGAAGGCCACCUGCUCGGAGGGGAUCUUCAACUCCCGGGUGGCGAAGACUGUCCCAUCUGCCCCAACUUUGAAGUCCAUGCUGUUGGUCUCAUAUUGUGUCAACAGAGGAUUGAGCAUCA
B13: chr9:14812383:14812384:-_ENSMUSG00000031934_ENSMUST00000164273|mus_mus|mus_mus_mus_hu_True|28_98 (ssRNA)
RNA: GGGAGUUCUACAGUCCGACGAUCAUAGCCCAGGUAGAUACAUGCCAACAGUAUAAUGAUGAGUGUCAGCAGGCGGCAGCUAAUGUACUUGAUGAUUAAAUUAUUAGAGUUCUUUUUUGUCUUCAAGUACUGCUCCACAAUUGGCAACAGAGGAUUGAGCAUCA
B14: chr7:56126341:56126342:+_ENSG00000146731_ENST00000540286|hu_mus|hu_hu_hu_mus_True|78_78 (ssRNA)
RNA: GGGAGUUCUACAGUCCGACGAUCCAUGUUUCUCCUCUUGGCUCUGCGCAGAGCUACUAUGCCUUCUUUCGCAAGGGCAUCUAAGGAAAAGGGGUCAAUCCCCUUUUGAUUAAUAACGACAAAUCCUUUAUCUGAGUCACCACACAACAGAGGAUUGAGCAUCA
B15: 111187709_111187950_928_CDS_ENSMUSG00000021701_ENSMUST00000022212|mouse|control|control (ssRNA)
RNA: GGGAGUUCUACAGUCCGACGAUCCGUUUCUUUCAGAUUUGUGGUUUCGAAUGGAGGUCUUCCUAGCAGCAUCGUAUACAUUACACAGCCUAAGGCCCAGAUGUCUGAUUCACAGCCGUGUCCUUGUUUGUUGAGGACUUCGGGCAACAGAGGAUUGAGCAUCA
B16: chr14:76904430:76904431:+_ENSMUSG00000022010_ENSMUST00000022587|mus_mus|mus_mus_mus_hu_True|18_68 (ssRNA)
RNA: GGGAGUUCUACAGUCCGACGAUCUGCAGCCAAAAACACCCUCGUGGAAAAAAAGAGGGAACACCAGCAGCCUGGUUUAAGCUAGAUAAAAUCUUCUGGCUUUCCGCAGCCCAGGGAGUGAGAACGGACGGCAGCCCUAAUUUACAACAGAGGAUUGAGCAUCA
B17: chr2:216981417:216981418:+_ENSG00000079246_ENST00000392132|hu_hu|hu_hu_hu_mus_True|18_18 (ssRNA)
RNA: GGGAGUUCUACAGUCCGACGAUCCUGAUACUGGUCCUUGCCAGCAAGGGCAUUAUCAGUGCCAUCUGUGCCAUAGAGGACUAACGCAAUCUCAUCUUUGCUCUCCGAAAAUACCUGUCGCUGUACAAACAUAGUCAUCACUUUCAACAGAGGAUUGAGCAUCA
B18: chr12:48362563:48362564:+_ENSG00000134291_ENST00000256686|hu_hu|hu_hu_hu_mus_False|48_98 (ssRNA)
RNA: GGGAGUUCUACAGUCCGACGAUCUCCGUCAAGCCCUUCAAGCCCCACUUGCGGGGGAAACUGUAAUCACUUUGUAUGGGGAAGGAAAAAAAAAGCCAAAAACUUUCCAAAAAGCGGGGGUGGGGUGAGGCGGGAGGGGGAGGUCAACAGAGGAUUGAGCAUCA
B19: chr8:127356239:127356240:+_ENSMUSG00000036913_ENSMUST00000167588|mus_mus|motif|central (ssRNA)
RNA: GGGAGUUCUACAGUCCGACGAUCCACCCUGCUAUCAGCAUAUUGCUCCCUGGCUCUGGAUUCCUUCAGGCCACAGGGCAGCGGAGGACAUUUUGGAACCACAUAAAGAUCUGAAGGUACAGCCUGGACCACACACGGUGUGAGCAACAGAGGAUUGAGCAUCA
B20: chr19:53983630:53983631:+_ENSMUSG00000024975_ENSMUST00000025931|mus_hu|FALSE|FALSE (ssRNA)
RNA: GGGAGUUCUACAGUCCGACGAUCAUUUCCAUUUAUUUCAUUCUUUAUUUCCUCAGUCCCAGCAUUUUCUUCAUCACCGGAAAAGAGAGAGUCACUUAAGUUAUCAGGAUCUGCAGGGUUUACAUUCAGUAUCUGCUCAUUUUCCAACAGAGGAUUGAGCAUCA
B21: 119142600_119142720_287_ncRNA_ENSMUSG00000041477_ENSMUST00000149651|mouse|control|control (ssRNA)
RNA: GGGAGUUCUACAGUCCGACGAUCUAACUGUGCUGAGAGGUGACUCUGCUUCAAGCACUUCACUUCUCAGGUAUAGGUCACAGUGACAGGACCUUGCCGUUCGAUGUGCGUUUCCAGAGACGACAGUUCUAUUGACGUGGCACUCAACAGAGGAUUGAGCAUCA
B22: chr17:30807568:30807569:+_ENSG00000108671_ENST00000457654|hu_mus|FALSE|FALSE (ssRNA)
RNA: GGGAGUUCUACAGUCCGACGAUCGUAGAGGGAGUCCACUACUUUACUCAUGUUCUGAAUAGUUUCCAGAGCAGCUUCAUAAGUUUUAUCUACUGGGGGUUCAUCGAAAAUGAUCAGGACACCCUCCCCCUGGUCCAAAAUCCCCAACAGAGGAUUGAGCAUCA

biological target: T1, UNK ZnF1-3; assay: nsRBNS (natural sequence RNA bind-n-seq); RBNS binding buffer (assumed for nsRBNS): 25 mM Tris pH 7.5, 150 mM KCl, 3 mM MgCl2, 0.01% Triton X-100, 500 ug/ml BSA, 20 U/ml SUPERase-In, 4 C; UNK is unkempt and MSI1 is Musashi-1; names of the RNAs are library labels; protein concentration not given here; high values mean tight binding

Which binding signal does the source give for B1 here?
The binding signal was 0.868 enrichment R.

How did the binding signal turn out when B2 was run?
The binding signal was 2.04 enrichment R.

How did the binding signal turn out when B3 was run?
The binding signal was 1.37 enrichment R.

B4 was tested. Which binding signal did it give?
Its binding signal is 1.34 enrichment R.

For B5, which binding signal is on record?
Its binding signal is 1.21 enrichment R.

B6 was tested. Which binding signal did it give?
The binding signal was 0.634 enrichment R.

For B7, which binding signal is on record?
The binding signal was 0.636 enrichment R.

Which binding signal does the source give for B8 here?
The binding signal was 0.521 enrichment R.

With B9 as the binder, how does the binding signal read?
Its binding signal is 0.697 enrichment R.

How did the binding signal turn out when B10 was run?
The binding signal was 1.84 enrichment R.

B11 was tested. Which binding signal did it give?
Its binding signal is 0.319 enrichment R.

Which binding signal does the source give for B12 here?
The binding signal was 0.848 enrichment R.

B13 was tested. Which binding signal did it give?
The binding signal was 1.7 enrichment R.

How did the binding signal turn out when B14 was run?
The binding signal was 0.673 enrichment R.

Which binding signal does the source give for B15 here?
The binding signal was 0.736 enrichment R.

Which binding signal does the source give for B16 here?
Its binding signal is 1.79 enrichment R.

B17 was tested. Which binding signal did it give?
Its binding signal is 0.819 enrichment R.

With B18 as the binder, how does the binding signal read?
Its binding signal is 2.21 enrichment R.

For B19, which binding signal is on record?
Its binding signal is 0.847 enrichment R.

Which binding signal does the source give for B20 here?
Its binding signal is 0.855 enrichment R.

Which binding signal does the source give for B21 here?
The binding signal was 0.426 enrichment R.

How did the binding signal turn out when B22 was run?
The binding signal was 0.94 enrichment R.
